Assay results from PMC4336329 (PLoS ONE, 2015).
The campaign covered roughly 310,000 compounds. About 14,000 (4.5%) showed an effect of 50% or more. Effects have a minus sign here. The list shows a part of the results.

Biological target: human ether-à-go-go-related gene (hERG) potassium channel (human, UniProt Q12809)
Assay: primary screen, population patch clamp on CHO cells stably expressing hERG
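Also: peak tail current of the secondary pulse compared with the same well before compound.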

Chain of human ether-à-go-go-related gene (hERG) potassium channel (Q12809 whole entry, looked up): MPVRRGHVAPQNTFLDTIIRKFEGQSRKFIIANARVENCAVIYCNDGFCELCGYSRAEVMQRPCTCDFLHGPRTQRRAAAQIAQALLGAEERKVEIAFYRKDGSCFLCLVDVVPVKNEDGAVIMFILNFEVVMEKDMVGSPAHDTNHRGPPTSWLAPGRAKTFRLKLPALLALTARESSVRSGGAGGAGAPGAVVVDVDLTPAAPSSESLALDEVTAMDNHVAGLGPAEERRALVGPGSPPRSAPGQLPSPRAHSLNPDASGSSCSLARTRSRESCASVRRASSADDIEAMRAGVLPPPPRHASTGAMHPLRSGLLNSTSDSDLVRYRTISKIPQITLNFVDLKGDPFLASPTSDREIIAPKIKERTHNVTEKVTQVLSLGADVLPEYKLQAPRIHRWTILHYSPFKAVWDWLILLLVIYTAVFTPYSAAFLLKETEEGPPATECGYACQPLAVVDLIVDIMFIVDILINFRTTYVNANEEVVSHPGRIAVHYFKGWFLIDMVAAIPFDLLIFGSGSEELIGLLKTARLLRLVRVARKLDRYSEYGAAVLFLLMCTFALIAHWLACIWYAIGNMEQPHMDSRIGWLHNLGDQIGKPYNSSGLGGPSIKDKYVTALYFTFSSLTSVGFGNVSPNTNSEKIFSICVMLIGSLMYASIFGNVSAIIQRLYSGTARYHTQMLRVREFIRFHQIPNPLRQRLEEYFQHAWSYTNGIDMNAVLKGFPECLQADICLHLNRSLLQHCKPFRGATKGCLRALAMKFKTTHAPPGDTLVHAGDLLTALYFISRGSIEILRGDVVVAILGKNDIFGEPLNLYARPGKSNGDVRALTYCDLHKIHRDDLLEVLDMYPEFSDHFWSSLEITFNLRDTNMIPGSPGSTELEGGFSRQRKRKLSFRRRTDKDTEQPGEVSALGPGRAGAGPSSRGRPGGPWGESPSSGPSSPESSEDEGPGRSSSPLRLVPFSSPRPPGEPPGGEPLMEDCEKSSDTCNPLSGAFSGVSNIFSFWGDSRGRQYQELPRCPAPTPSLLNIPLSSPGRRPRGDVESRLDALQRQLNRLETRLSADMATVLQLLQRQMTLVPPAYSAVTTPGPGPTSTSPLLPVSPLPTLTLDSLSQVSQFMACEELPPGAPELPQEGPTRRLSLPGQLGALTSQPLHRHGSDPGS

Compound	hERG current change (%, negative = inhibition) at 10uM [%]
O=C1CSC(c2ccccc2F)N1c1ccccc1 (centres unmarked)	0.868
Nn1c(COc2cccc(Cl)c2)nc2ccccc2c1=O	-11.8
COC(=O)Nc1ccc(S(=O)(=O)Nc2ccccc2F)cc1	13.6
O=C(Cc1ccc(S(=O)(=O)N2CCOCC2)s1)Nc1cc(C(F)(F)F)ccc1N1CCCC1	-22.6
CN1CCCN(C(=O)COc2ccccc2Br)CC1	-2.57
CN(C)S(=O)(=O)c1cccc(NC(=O)c2ccc(Sc3nncn3C)c([N+](=O)[O-])c2)c1	7.09
COc1cc2c(cc1OC)[C@H](Cc1ccc(O)cc1)NCC2	2.2
COc1ccc(/C=C2/C(=O)N=C(N)N2C)cc1OC	7.3
COc1ccc(C/C(C)=N/NC(=S)Nc2ccccc2)cc1	1.88
Cc1ccc(-c2cc(C(=O)Nc3ccc4c(c3)OCCO4)c3ccccc3n2)cc1	14.2
CC(C)(C)C(=O)NC(=S)Nc1ccc(Cl)c(C(=O)O)c1	24.4
CCC(C)N(C(=O)CSc1nc(-c2ccccc2)cs1)C1CCS(=O)(=O)C1 (centres unmarked)	-8.26
O=C(O)/C=C/c1ccccc1Oc1ccccc1	14
CC(C)Sc1nnc([C@@H]2CCCN2C(=O)OC(C)(C)C)o1	14.7
O=C(CN1CCN(S(=O)(=O)c2ccc(Cl)cc2)CC1)Nc1ccc2c(c1)OCCO2	-5.94
CCOC(=S)N/C(=N\S(C)(=O)=O)c1ccccc1	-2.92
Cc1ccn2c(=O)c(C(=O)NCCC3=CCCCC3)c(O)nc2c1	3.47
N/C(=N\O)c1ccc(NC(=O)c2ccc(Br)o2)cc1	-12.4
COC(=O)C1(C)NC(c2ccc(O)cc2)C2C(=O)N(c3ccc(F)cc3)C(=O)C21 (centres unmarked)	12.4
Cc1ccc(NC(=O)C(=O)NNC(=O)c2ccccc2C)cc1Cl	-5.32
CC(C)(C)NCC(O)(c1ccc(Cl)cc1)c1ccc(Cl)cc1	-13.8
O=C(CN1C(=O)NC2(CCCCCC2)C1=O)Nc1ccc(S(=O)(=O)N2CCOCC2)cc1	9.75

Compound	hERG current change (%, negative = inhibition) at 10uM [%]
CC(=O)N(CC1CCCO1)c1nnc(-c2cnccn2)s1 (centres unmarked)	12.8
Cc1ccc(S(=O)(=O)NNC2=NS(=O)(=O)c3ccccc32)c(C)c1	16.1
CCCCN(CCCC)S(=O)(=O)c1ccc(OC)c2ncccc12	-13.2
CN(/N=C/c1cc(Br)cc(Br)c1O)c1cccc(C(F)(F)F)n1	23.7
O=S(=O)(Nc1cccc(-n2cnnn2)c1)c1ccc(Cl)nc1	5.49
Cc1nc(N2CCN(Cc3ccccc3)CC2)nc2c1C(=O)CC(C)C2 (centres unmarked)	-5.32
Cc1ccc(C)[n+](CC(=O)c2ccc(-c3ccccc3)cc2)c1.[Cl-]	-27
CC(=O)c1ccc(OCC(O)CN2CCOCC2)cc1.Cl (centres unmarked)	9.11
COc1ccc(C(=O)NC(=S)NNC(=O)c2ccco2)cc1	22
CCOC(=O)Cc1nnc(Nc2ccc(C)cc2C)c2ccccc12	-2.76
CN(C)/C=C1/NC(=S)NC1=O	0.253
O=C(CC1Nc2ccccc2NC1=O)NCCc1ccccc1 (centres unmarked)	-3.96
O=S(=O)(Nc1ncnc2c1oc1ccccc12)c1ccc(Cl)s1	16.2
Cc1cccc(C)c1OCC(O)Cn1ccnc1C (centres unmarked)	-8.31
Cc1c(C)c2ccc(OCC(=O)Nc3ccccn3)cc2oc1=O	4.53
O=C(O)CCOc1ccc2c(c1)OCCO2	3.58
COc1ccc(-c2nc(CSCC(=O)NC3CCCc4ccccc43)c(C)o2)cc1 (centres unmarked)	5.36
OCC1(Cc2ccccc2C(F)(F)F)CCN(Cc2ccc3c(c2)CCO3)CC1	-28.7
CN=C(SCc1ccccc1)c1c(O)n(C)c(=O)n(C)c1=O	4.22
COc1ccc(C)cc1NC(=O)C(Sc1nnc(Nc2cc(C)ccc2OC)s1)c1ccccc1 (centres unmarked)	0.631
COC(C(=O)N1CCC(n2nccc2NC(=O)C2CC2)CC1)c1ccccc1 (centres unmarked)	9.4
Cc1ccc(OCC(=O)Nc2cc(C)on2)c([N+](=O)[O-])n1	-1.57
